Survival data for 87 compounds are collected here from PubChem BioAssay AID463173 (ICCB-Longwood Screening Facility, Harvard Medical School, 2010).

Screen size: about 52,000 compounds; about 4,300 (8.3%) were called active. Rule as the data show it: active = survival mostly below about 52% (no sharp cut-off); inactive = mostly above about 56%. Some of the results follow.

This assay concerns DeltatarO mutant. Nature of the assay: S. aureus survival, RN4220 and DeltatarO strains – OD600, teichoic acid synthesis inhibitors, primary screen (AID 463173). The following applies: S. aureus RN4220 wild type/DeltatarO growth, OD600, 18 h, hits give low values, screened at 18.75 µg/mL (by protocol).
For `COc1ccc2nc(N(Cc3cccnc3)C(=O)C3COc4ccccc4O3)sc2c1` (configuration not stated), the survival is inactive: 78%. The value for `Cc1cc(C)c(Cn2c3ccccc3c3cnn(CC(=O)NCc4ccccn4)c(=O)c32)c(C)c1` was inactive: 95%; that for `O=C(CCS(=O)(=O)c1ccc(Br)cc1)Nc1ccc(Cl)c(C(F)(F)F)c1` was inactive: 90%; that for `CCOC(=O)c1cccc(NC(=O)c2cn(-c3cccc(OC)c3)c(=O)c3ccccc23)c1` was inactive: 60%.

With `CCc1nc(SCC(=O)O)c(C#N)cc1C`, the survival was inactive: 47%. `CC(=NC1CC1)C1=C(O)c2ccccc2C1=O`: the survival is inactive: 92%. The value for `COc1cccc(NC(=O)Cn2c(=O)n(CC(=O)NCc3ccc(C)cc3)c(=O)c3sccc32)c1` was inactive: 77%; that for `Nc1nnc(SCC(=O)Nc2ccccc2)s1` was inactive: 73%. The value for `Cc1ccc2nc(-c3c[nH]c4ccccc34)c(Nc3ccccc3C)n2c1` was inactive: 96%.

For the compound `Cc1ccc(C(c2ccccc2)c2c(C)[nH]c3ccccc23)s1` (configuration not stated), the survival was active: 26%. As for `COCCNC(=O)c1nc2c(nnn2Cc2cc(C)ccc2C)c(=O)[nH]1`, the survival is inactive: 90%. Take `CCN1CCN(C(=O)Cn2ncc3c4ccccc4n(Cc4ccccc4)c3c2=O)CC1`: the survival was inactive: 81%. The value for `Cc1ccc(-c2cc(NC(=O)COc3ccc(Cl)c(C)c3)on2)cc1` was inactive: 86%; that for `Cc1ccc(/C=C/C(=O)Nc2ccc(S(N)(=O)=O)cc2)o1` was inactive: 61%; that for `Cc1ccc(NC(=O)N(Cc2cc3cc(C)cc(C)c3[nH]c2=O)CC2COCCO2)cc1` (configuration not stated) was inactive: 99%. The value for `CCc1ccc(-n2c(N3CCN(c4cccc(Cl)c4)CC3)nc3ccccc3c2=O)cc1` was inactive: 67%; that for `Cc1ccc(-n2c(SCC(=O)NCc3ccccc3)nc3n[nH]c(C)c3c2=N)cc1Cl` was active: -5%.

With `O=C(NCC(c1cccs1)S(=O)(=O)c1cccs1)c1ccc(Cl)cc1` (configuration not stated), the survival was inactive: 75%. As to `Fc1cc(F)c2ncc3c(-c4ccccc4)nn(-c4cccc(Cl)c4)c3c2c1`, the survival is inactive: 123%. `CC(C)OCCCNC(=O)C(=O)Nc1ccc2nc3n(c(=O)c2c1)CCCCC3`: the survival was inactive: 103%. In the case of `Cc1ccc(Sc2ccc(N3CCC(C(=O)Nc4ccc(C)c(F)c4)CC3)nn2)cc1`, the survival is inactive: 71%.

Consider `Cc1cccc(Cn2c(=O)n(Cc3ccccc3)c(=O)c3oc4ccccc4c32)c1`, for which the survival is inactive: 86%. `Cc1ccccc1NC(=O)C1CCN(C(=O)c2cnn(-c3ccccc3)c2-n2cccc2)CC1`: the survival is inactive: 79%. As for `Cc1cccc(-c2nc3nc(C)cc(NCc4ccccc4Cl)n3n2)c1`, the survival is inactive: 74%. Consider `COc1cc(NC(=O)N(Cc2ccco2)C2CCN(C(C)=O)CC2)cc(OC)c1OC`, for which the survival was inactive: 134%. The value for `COc1ccc(-c2cc(C(F)(F)F)nc(-n3nc(C(F)(F)F)cc3C)n2)cc1` was active: 16%.

As for `CN1CCN(CCC(=O)Nc2cccc(F)c2)CC1`, the survival was inactive: 96%. Consider `CCOC(=O)c1cc2c(=O)n3ccccc3nc2n(CCOC)c1=NC(=O)C(C)(C)Oc1ccc(Cl)cc1`, for which the survival is inactive: 78%. The value for `Cc1ccc(Cn2ccn(CC(=O)Nc3c(C)cc(C)cc3C)c(=O)c2=O)cc1` was inactive: 47%; that for `CC(C)c1cnc2c(c1SCc1cccc(F)c1)c(=O)n(C)c(=O)n2C` was inactive: 80%; that for `Cc1ccc(-c2nc3nc(C)cc(C)n3c2Nc2ccc3c(c2)OCCO3)cc1` was inactive: 119%. For `CC(=O)N1CCc2cc(Br)cc(S(=O)(=O)N3CCC(C)CC3)c21`, the survival is inactive: 127%.

Consider `CCOc1ccc(NC(=O)Cn2c(=O)n(Cc3nc(-c4ccccc4)no3)c(=O)c3cc4c(cc32)OCO4)cc1`, for which the survival was inactive: 89%. For the compound `CC(=O)c1ccc(NC(=O)c2nc(-c3ccccc3)n(-c3ccc(Cl)cc3)n2)cc1`, the survival is active: 49%. `Cc1cn2c(=O)cc(COc3ccccc3NC(=O)c3ccc(C(C)(C)C)cc3)nc2s1`: the survival was inactive: 82%.

On to `Cc1cccc(CNC(=O)c2oc3c(c2C)-c2nn(Cc4cccc(Cl)c4)cc2CC3)c1`, for which the survival is inactive: 97%. As for `CCOc1ccc(CN2C(=O)c3ccccc3Sc3ccc(C(=O)NC)cc32)cc1`, the survival was inactive: 85%. For `COC(=O)c1ccc2c(c1)N(CC(=O)Nc1cccc(Cl)c1C)C(=O)c1ccccc1S2`, the survival was inactive: 74%.

`CC(C)NC(=O)Cn1c(=O)nc(-c2ccccc2F)c2cc(Cl)ccc21`: the survival is inactive: 73%. Turning to `CC(O)/C=C/c1ccncc1` (configuration not stated), the survival was inactive: 84%. For the compound `CCCCN(C)CCCNC(=O)Cn1ncc2c3ccccc3n(Cc3ccccc3F)c2c1=O`, the survival is inactive: 114%. `Cc1noc(-c2ccc(N3CCC(C)CC3)c([N+](=O)[O-])c2)n1`: the survival was inactive: 60%. `COc1ccc(NS(=O)(=O)c2cc3c(cc2C)NC(=O)CO3)c(OC)c1`: the survival was inactive: 86%.

With `COc1cc(NC(=O)C2CCN(S(=O)(=O)c3ccc4c(c3)oc(=O)n4C)CC2)cc(OC)c1`, the survival is inactive: 102%. Turning to `O=C(CSC1=Nc2ccccc2C2=NC(Cc3ccccc3)C(=O)N12)Nc1ccccc1C(F)(F)F` (configuration not stated), the survival was inactive: 86%.

Take `CCOC(=O)N1CCc2c(sc(NCc3ccc(N(C)C)cc3)c2C(=O)Nc2ccc(OC)cc2)C1`: the survival is inactive: 77%. For the compound `O=c1[nH]c(O)c(C=NCc2ccc3c(c2)OCO3)c(=O)[nH]1`, the survival is inactive: 86%. Regarding `COc1ccc(NC(=O)CCc2c(C)nc3c(c2C)c(=O)n(C)c(=O)n3C)cc1OC`, the survival is inactive: 100%. Take `O=C1N(Cc2cccc(C(F)(F)F)c2)c2ccccc2S(=O)(=O)N1c1cccc(Cl)c1`: the survival was inactive: 80%. For `COc1ccc(CNC(=O)c2cc3cc(S(=O)(=O)N4CCCCC4)ccc3n2C)c(OC)c1`, the survival is inactive: 91%. For `COc1ccc(NC(=O)CSc2nc(-c3cccs3)cc(C(F)(F)F)c2C#N)cc1`, the survival was inactive: 88%. Consider `Cc1c(Cl)cccc1N1C(N)=C(C#N)C(c2cc(CN3CCOCC3)cs2)C2=C1CCCC2=O` (configuration not stated), for which the survival was inactive: 128%.

For the compound `Nc1nc(N)c2nccnc2n1`, the survival was inactive: 115%. With `COc1ccc(C(c2nnnn2C2CCCC2)N2CCN(C(=O)c3ccco3)CC2)cc1OC` (configuration not stated), the survival is inactive: 83%. Take `Cc1cccc(N2CC(C)Cn3c2nc2c3c(=O)n(CC(=O)O)c(=O)n2C)c1` (configuration not stated): the survival was inactive: 133%. For `CCc1cccc(NC(=O)CCc2nc3cccnc3n2-c2ccccc2)c1`, the survival was inactive: 91%.

Regarding `CSc1ccc(CCNC(=O)c2ccc(CS(=O)(=O)c3ccc(Br)cc3)o2)cc1`, the survival was inactive: 87%.

Turning to `COc1ccc2[nH]c(=O)c(C(c3nnnn3Cc3ccccc3)N3CCc4ccccc43)cc2c1` (configuration not stated), the survival is inactive: 50%.

Take `CCOc1cc(CNC(=O)c2ccc3c(c2)N(C)C(=O)C2CCCCN32)cc(OCC)c1OCC` (configuration not stated): the survival was inactive: 106%.

Turning to `CCCN(CCC)c1nc(-c2ccccc2F)nc2ccccc12`, the survival was active: 4%. With `CCc1ccccc1NC(=O)CSC1=Nc2ccccc2C2=NC(Cc3ccccc3)C(=O)N12` (configuration not stated), the survival is inactive: 78%. In the case of `O=C(CSc1nc2c([nH]c3ccccc32)c(=O)n1-c1ccc(F)cc1)NC1CCCCC1`, the survival is inactive: 83%. On to `COc1ccc(OCc2ccc(-c3nc(C#N)c(N4CCN(c5cccc(Cl)c5)CC4)o3)o2)cc1`, for which the survival is inactive: 75%. In the case of `O=C(COc1ccc([N+](=O)[O-])cc1)Nc1cccc2cccnc12`, the survival is inactive: 89%. Consider `CCN(CC)C(=O)CSc1nc2cc3c(cc2c(=O)n1CCCCCC(=O)NCCc1ccc(OC)c(OC)c1)OCO3`, for which the survival was inactive: 115%. With `COCCNC(=O)CCc1c(C)nc2c(c(C)nn2-c2ccc(C)cc2)c1C`, the survival was inactive: 89%. As for `CCOc1ccc(NC(=O)c2c(NCc3sccc3C)sc3c2CCCCC3)cc1`, the survival is inactive: 73%.

As to `COc1ccc(CNC(=O)c2ccc3c(c2)N(Cc2ccccc2F)C(=O)c2ccccc2S3(=O)=O)cc1`, the survival is inactive: 74%. For `Cc1ccc(C(=O)N2CC3(C)CC2CC(C)(C)C3)cc1` (configuration not stated), the survival was inactive: 100%.

For `N#Cc1c(C(F)(F)F)cc(-c2cccs2)nc1SCC(=O)Nc1ccc(F)cc1`, the survival was inactive: 72%.

On to `Cc1cc(F)ccc1NC(=O)CN(C)S(=O)(=O)c1ccc(C(=O)N2CCOCC2)s1`, for which the survival was inactive: 96%. Consider `CC1(C)CCCC2=C1CC1C(=O)N(O)C(=O)C1C2` (configuration not stated), for which the survival was inactive: 93%. Turning to `CSc1ncc(Cl)c(C(=O)Nc2ccc(S(=O)(=O)N3CCCC(C)C3)cc2)n1` (configuration not stated), the survival is inactive: 79%.

Consider `CCC(Sc1nc2nccnc2c(=O)n1Cc1ccc(F)cc1)C(=O)NC1CCCCC1` (configuration not stated), for which the survival is active: 42%.

Take `CCOc1cccc(C2c3[nH]c4ccccc4c3CCN2C(=O)CCC2CCCC2)c1` (configuration not stated): the survival is inactive: 78%. On to `O=C(CSc1ccccn1)c1ccc(Cl)cc1`, for which the survival is inactive: 76%. On to `CCc1cccc(NC(=O)C2CCC(CNS(=O)(=O)c3csc(C(N)=O)c3)CC2)c1` (configuration not stated), for which the survival was inactive: 80%. On to `COc1cc(NC(=O)C2CCCN(S(=O)(=O)c3ccc4c(c3)CCCC(=O)N4)C2)cc(OC)c1` (configuration not stated), for which the survival is inactive: 94%. For the compound `COc1cc(Cl)c(C)cc1NC(=O)Cn1ncc2c(=O)oc3ccccc3c21`, the survival is inactive: 83%. Regarding `CCC(C(=O)OC)n1cnc2c(cnn2-c2ccc(F)cc2)c1=O` (configuration not stated), the survival was inactive: 92%. With `COc1ccc(-c2nc(SCC(=O)c3ccc(OC)c(Br)c3)n[nH]2)cc1`, the survival is inactive: 97%. Turning to `O=C(NCc1cccnc1)C(=O)NCC(c1cccnc1)N1CCN(c2ccccc2F)CC1` (configuration not stated), the survival is inactive: 106%. Consider `Cc1cc(C)c2c(=O)cc(C(=O)Nc3ccc(S(=O)(=O)N(C)Cc4ccccc4)cc3)oc2c1`, for which the survival was inactive: 61%. For `O=C(C1CCN(S(=O)(=O)c2cccc3nonc23)CC1)N1CCN(c2ccccc2F)CC1`, the survival is inactive: 89%.

As for `CCOC(=O)c1sc2ccccc2c1S(=O)(=O)N1CCN(c2cccc(C)c2C)CC1`, the survival is inactive: 101%.

On to `CCOC(=O)c1sc2ccccc2c1S(=O)(=O)N1CCN(c2cccc(OC)c2)CC1`, for which the survival is inactive: 81%. As for `Cc1nn(-c2ccc(F)cc2)c(-n2cccc2)c1C(=O)NCCCN1CCN(c2cccc(Cl)c2)CC1`, the survival is inactive: 94%.
